Some of the results follow. At the low end of the ranking the order means little.

This test has as its target GST-SBP-SLBP (stem-loop binding protein) (UniProt Q14493). Nature of the test: targeted RNA Bind-n-Seq.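 Note: DESeq read counts versus GST-SBP nonspecific binding control pulldown.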 Conditions: RBNS binding buffer: 25 mM Tris pH 7.5, 150 mM KCl, 3 mM MgCl2, 0.1% Tween, 0.5 mg/mL BSA, 1 mM DTT; 27 nM protein, 750 pM RNA pool; temperature not stated; high values mean tight binding.
“GGUCACGUCUCAAUCAACUCUAUCUCCAGGGAAACCCCUGGCUUACUCAACAGCUCGCAGUCAAG”: the binding signal (log2 fold change) is -0.0131.

For “GGUCACGUCUCAAUCAACUCUUCCUCCAGGGAAAUCCCUGGCUUUUUCAACAGCUCGCAGUCAAG”, the binding signal (log2 fold change) was -0.188.

With “GGUCACGUCUCAAUCAACUCUUUCUCCAGGGAAACCCCUGGUUAACUCAACAGCUCGCAGUCAAG”, the binding signal (log2 fold change) was found to be 0.223.

“GGUCACGUCUCAAUCAACUCUCUAGAGGGGGGGAAAACCCCUUUGCCCUCAAUUUCAACAGCUCGCAGUCAAG”: the binding signal (log2 fold change) is -0.198.

Take “GGUCACGUCUCAAUCAACUCACAAGAGGGGGGGAAAACCCCUUUACCCUCCCAAUCAACAGCUCGCAGUCAAG”: the binding signal (log2 fold change) came out at 0.187.

As to “GGUCACGUCUCAAUCAACUCUUCCGCAGGAGUUUUCUCCUGGUAUUUCAACAGCUCGCAGUCAAG”, the binding signal (log2 fold change) is 0.0226.

In the case of “GGUCACGUCUCAAUCAACUCAUCUCCAGGAGUUUUCUCCUGCUAACUCAACAGCUCGCAGUCAAG”, the binding signal (log2 fold change) is -0.0801.

Turning to “GGUCACGUCUCAAUCAACUCAUUCUCAGGAGUUUCCUCCUGCAAUCUCAACAGCUCGCAGUCAAG”, the binding signal (log2 fold change) was determined as 0.00191.

As to “GGUCACGUCUCAAUCAACUCAGUUUCAGGAGUUUCCUCCUGUAUAUUCAACAGCUCGCAGUCAAG”, the binding signal (log2 fold change) was found to be 0.105.

Consider “GGUCACGUCUCAAUCAACUCAUUUCCCAGGGAAAGCCCUGGCAUAUUCAACAGCUCGCAGUCAAG”, for which the binding signal (log2 fold change) is 0.154.

For the sequence “GGUCACGUCUCAAUCAACUCUACUUCCAGGGAAAGCCCUGGCAAUUUCAACAGCUCGCAGUCAAG”, the binding signal (log2 fold change) came to 0.164.

In the case of “GGUCACGUCUCAAUCAACUCAUCCCCAGGAGUUUACUCCUGUUUAUUCAACAGCUCGCAGUCAAG”, the binding signal (log2 fold change) is 0.16.

Take “GGUCACGUCUCAAUCAACUCUACUCCCAGGGAAAGCCCUGGCUUAUUCAACAGCUCGCAGUCAAG”: the binding signal (log2 fold change) is 0.0337.

Turning to “GGUCACGUCUCAAUCAACUCAUCUUCCAGGGAAAUCCCUGGUAUACUCAACAGCUCGCAGUCAAG”, the binding signal (log2 fold change) turned out to be 0.0231.

In the case of “GGUCACGUCUCAAUCAACUCAUCUUCAGGAGUUUGCUCCUGUUAAUUCAACAGCUCGCAGUCAAG”, the binding signal (log2 fold change) was -0.0375.

On to “GGUCACGUCUCAAUCAACUCAACUCCAGGAGUUUUCUCCUGUAAUCUCAACAGCUCGCAGUCAAG”, for which the binding signal (log2 fold change) is -0.121.

As for “GGUCACGUCUCAAUCAACUCUUUCUCCAGGGAAACCCCUGGUUAAUUCAACAGCUCGCAGUCAAG”, the binding signal (log2 fold change) is -0.1.

Take “GGUCACGUCUCAAUCAACUCCUUCGAGGGGGGGAAAACCCCUUUACCCUCAUAUUCAACAGCUCGCAGUCAAG”: the binding signal (log2 fold change) was -0.137.

Consider “GGUCACGUCUCAAUCAACUCAUUCCCAGGAGUUUUCUCCUGUAAAUUCAACAGCUCGCAGUCAAG”, for which the binding signal (log2 fold change) stood at 0.0352.

For the sequence “GGUCACGUCUCAAUCAACUCCAAAGAGGGGGGGAAAACCCCUUUGCCCUCAAUUUCAACAGCUCGCAGUCAAG”, the binding signal (log2 fold change) was -0.00323.

Turning to “GGUCACGUCUCAAUCAACUCAUUUUCCAGGGAAAGCCCUGGCAUAUUCAACAGCUCGCAGUCAAG”, the binding signal (log2 fold change) was -0.107.

“GGUCACGUCUCAAUCAACUCAUUCUCAGGAGUUUACUCCUGCUUUUUCAACAGCUCGCAGUCAAG”: the binding signal (log2 fold change) is -0.0164.

Consider “GGUCACGUCUCAAUCAACUCUAACGAGGGGGGGAAAACCCCUUUGCCCUCAACAUCAACAGCUCGCAGUCAAG”, for which the binding signal (log2 fold change) was -0.294.

Take “GGUCACGUCUCAAUCAACUCAUCCUCAGGAGUUUACUCCUGUUAAUUCAACAGCUCGCAGUCAAG”: the binding signal (log2 fold change) is -0.0609.

“GGUCACGUCUCAAUCAACUCAUUUUCAGGAGUUUACUCCUGUAAUUUCAACAGCUCGCAGUCAAG”: the binding signal (log2 fold change) is -0.155.

Turning to “GGUCACGUCUCAAUCAACUCAAUCUCCAGGGAAAUCCCUGGUUAAUUCAACAGCUCGCAGUCAAG”, the binding signal (log2 fold change) was found to be 0.348.

In the case of “GGUCACGUCUCAAUCAACUCAAUCCCCAGGGAAAACCCUGGCAUAUUCAACAGCUCGCAGUCAAG”, the binding signal (log2 fold change) worked out at 0.106.

“GGUCACGUCUCAAUCAACUCUUUCCCAGGAGUUUUCUCCUGUUUUCUCAACAGCUCGCAGUCAAG”: the binding signal (log2 fold change) was -0.0388.

Regarding “GGUCACGUCUCAAUCAACUCAAUCCCCAGGGAAACCCCUGGUAAACUCAACAGCUCGCAGUCAAG”, the binding signal (log2 fold change) was -0.162.

Turning to “GGUCACGUCUCAAUCAACUCAUCAGAGGGGGGGAAAACCCCUUUACCCUCAACCUCAACAGCUCGCAGUCAAG”, the binding signal (log2 fold change) is -0.287.

As to “GGUCACGUCUCAAUCAACUCUAUCCCCAGGGAAAACCCUGGUAAACUCAACAGCUCGCAGUCAAG”, the binding signal (log2 fold change) amounted to 0.0123.

Turning to “GGUCACGUCUCAAUCAACUCUAUUUCCAGGGAAAUCCCUGGCAUACUCAACAGCUCGCAGUCAAG”, the binding signal (log2 fold change) was -0.064.

Regarding “GGUCACGUCUCAAUCAACUCAUACGAGGGGGGGAAAACCCCUUUACCCUCAAAUUCAACAGCUCGCAGUCAAG”, the binding signal (log2 fold change) worked out at 0.598.

“GGUCACGUCUCAAUCAACUCUAUCUCCAGGGAAAACCCUGGUUAACUCAACAGCUCGCAGUCAAG”: the binding signal (log2 fold change) came out at 0.251.

Take “GGUCACGUCUCAAUCAACUCUUCCCCAGGAGUUUCCUCCUGUAAUGUCAACAGCUCGCAGUCAAG”: the binding signal (log2 fold change) is -0.0497.

Turning to “GGUCACGUCUCAAUCAACUCUUUCCCCAGGGAAAUCCCUGGUAAACUCAACAGCUCGCAGUCAAG”, the binding signal (log2 fold change) came out at 0.16.

With “GGUCACGUCUCAAUCAACUCAUCUUCAGGAGUUUACUCCUGCAUUCUCAACAGCUCGCAGUCAAG”, the binding signal (log2 fold change) was 0.175.

Source of the values: publication PMC5892938.
